The supplement of paper PMC12645437, “Orthogonal IMiD-Degron Pairs Induce Selective Protein Degradation in Cells” (ACS Chemical Biology, 2025)
The other results are listed elsewhere or left out.
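Further: jurkat cells carrying a lentiviral library of mutant zinc finger degrons fused to EGFP plus mCherry, mCherry+ cells FACS sorted, degron abundance counted by next-generation sequencing.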

Each sequence was assayed against no compound (DMSO) (assay: log2 fold change of degron read counts, EGFP-low vs EGFP+ sorted cells; higher = lower degron-EGFP level without compound (poor expression or instability)). Conditions: compound: DMSO control; 18 h.
In the case of FECPICGRNFTQKGNLLRHIKL, the “log2 fold change of degron read counts” value is reported as -0.625.
FICNQCGHTFTQKGNLLRHIKL was tested, and the “log2 fold change of degron read counts” value was -0.705.
In the case of FNCPVCGALFTQKGNLLRHIKL, the “log2 fold change of degron read counts” value is reported as -0.0437.
With FHCPICGHLFTQKGNLLRHIKL the “log2 fold change of degron read counts” value was -0.421.
In the case of FSCNVCGAAFTQKGNLLRHIKL, the “log2 fold change of degron read counts” value is reported as -1.13.
FLCEICGHMFTQKGNLLRHIKL was tested, and the “log2 fold change of degron read counts” value was -1.18.
With FECPICGHDFTQKGNLLRHIKL the “log2 fold change of degron read counts” value was -0.804.
For FFCPICGHMFTQKGNLLRHIKL, the “log2 fold change of degron read counts” value was 0.686.
In the case of FQCNQCGRFFTQKGNLLRHIKL, the “log2 fold change of degron read counts” value is reported as 0.297.
FSCNQCGHFFTQKGNLLRHIKL was tested, and the “log2 fold change of degron read counts” value was 0.613.
In the case of LLCPICGFHCTQKGNLLRHIKL, the “log2 fold change of degron read counts” value is reported as 1.16.
For FKCPQCGAIFTQKGNLLRHIKL, the “log2 fold change of degron read counts” value was -1.37.
In the case of FCCDQCGAKFTQKGNLLRHIKL, the “log2 fold change of degron read counts” value is reported as -1.93.
For FGCDICGAHFTQKGNLLRHIKL, the “log2 fold change of degron read counts” value was -0.705.
FECEICGAYFTQKGNLLRHIKL was tested, and the “log2 fold change of degron read counts” value was -0.802.
With FSCNQCGHVFTQKGNLLRHIKL the “log2 fold change of degron read counts” value was 0.128.
LLCEICGFGCTQKGNLLRHIKL was tested, and the “log2 fold change of degron read counts” value was 0.763.
With FTCPICGAVFTQKGNLLRHIKL the “log2 fold change of degron read counts” value was -0.17.
FSCSVCGHMFTQKGNLLRHIKL was tested, and the “log2 fold change of degron read counts” value was -0.0161.
With FSCNQCGRRFTQKGNLLRHIKL the “log2 fold change of degron read counts” value was 0.0733.
For FYCNQCGRHFTQKGNLLRHIKL, the “log2 fold change of degron read counts” value was 0.591.
In the case of FHCPICGAIFTQKGNLLRHIKL, the “log2 fold change of degron read counts” value is reported as 0.139.
For FNCPICGHSFTQKGNLLRHIKL, the “log2 fold change of degron read counts” value was 0.043.
In the case of FHCNQCGAQFTQKGNLLRHIKL, the “log2 fold change of degron read counts” value is reported as -0.251.
FFCPICGADFTQKGNLLRHIKL was tested, and the “log2 fold change of degron read counts” value was 0.0896.
With FQCSVCGHCFTQKGNLLRHIKL the “log2 fold change of degron read counts” value was -1.14.
With FWCPICGAWFTQKGNLLRHIKL the “log2 fold change of degron read counts” value was 1.88.
For FLCEICGRYFTQKGNLLRHIKL, the “log2 fold change of degron read counts” value was -0.104.
FQCDVCGALFTQKGNLLRHIKL was tested, and the “log2 fold change of degron read counts” value was -0.877.
For FGCDVCGAEFTQKGNLLRHIKL, the “log2 fold change of degron read counts” value was -2.27.
In the case of LFCPICGFICTQKGNLLRHIKL, the “log2 fold change of degron read counts” value is reported as 2.16.
For FTCEQCGAVFTQKGNLLRHIKL, the “log2 fold change of degron read counts” value was -1.96.
For LSCPICGFCCTQKGNLLRHIKL, the “log2 fold change of degron read counts” value was 0.764.
For FSCDQCGAKFTQKGNLLRHIKL, the “log2 fold change of degron read counts” value was -2.3.
With FQCNICGAYFTQKGNLLRHIKL the “log2 fold change of degron read counts” value was -0.569.
FKCNQCGRTFTQKGNLLRHIKL was tested, and the “log2 fold change of degron read counts” value was -1.31.
FKCDVCGAKFTQKGNLLRHIKL was tested, and the “log2 fold change of degron read counts” value was -2.51.
FLCNQCGHEFTQKGNLLRHIKL was tested, and the “log2 fold change of degron read counts” value was -0.174.
FICDVCGAKFTQKGNLLRHIKL was tested, and the “log2 fold change of degron read counts” value was -1.34.
For LYCPICGFLCTQKGNLLRHIKL, the “log2 fold change of degron read counts” value was 1.53.
With FQCEQCGAQFTQKGNLLRHIKL the “log2 fold change of degron read counts” value was -1.68.
For FICPICGRWFTQKGNLLRHIKL, the “log2 fold change of degron read counts” value was 0.807.
FFCPVCGALFTQKGNLLRHIKL was tested, and the “log2 fold change of degron read counts” value was 0.33.
For FMCPICGAWFTQKGNLLRHIKL, the “log2 fold change of degron read counts” value was 1.41.
For FRCDVCGAGFTQKGNLLRHIKL, the “log2 fold change of degron read counts” value was -1.72.
With FCCPICGASFTQKGNLLRHIKL the “log2 fold change of degron read counts” value was -0.247.
In the case of FSCPQCGAKFTQKGNLLRHIKL, the “log2 fold change of degron read counts” value is reported as -0.568.
With LICNQCGFFCTQKGNLLRHIKL the “log2 fold change of degron read counts” value was 1.73.
FHCEICGHCFTQKGNLLRHIKL was tested, and the “log2 fold change of degron read counts” value was -1.16.
With FKCPICGAVFTQKGNLLRHIKL the “log2 fold change of degron read counts” value was -0.71.
